Test results reported in PubChem BioAssay (NCI).
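1) Cells in 96-well plates. 2) Compound, 48 h, 5 concentrations. 3) Linear interpolation between surrounding doses. 4) Unreached endpoint = highest concentration. Abbreviation: GI50, concentration required for 50% inhibition of growth. TGI is the concentration that stops growth completely.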

Test system: NCI-H322M lung
Assay: growth of human tumour cells (NCI), 48 h

SMILES | GI50 [µM] | TGI [µM]
O=C(N/N=C/c1ccc(Br)o1)c1[nH]c2ccc(Br)cc2c1-c1ccccc1 | 0.661 | > 52.4
FC(F)(F)c1cc2c(Cl)ncnc2n1CCN1CCCCC1 | 15.6 | 44
C[C@H]1[C@@H](CC(=O)N[C@@H](Cc2coc3ccccc23)B(O)O)O[C@@H]2OC3(C)CC[C@H]4[C@H](C)CC[C@@H]1[C@@]24O3 | 17.7 | 99.8
COc1cc(Nc2nc(O)c(/C=C3\C=Nc4ccccc43)s2)cc(OC)c1OC | 6.38 | 21.2
